Reference: article PMC4336329 (PLoS ONE, 2015)
Out of some 310,000 compounds screened, about 14,000 (4.5%) showed an effect of 50% or more. The effect is printed as a negative number. The list shows a part of the results.

Each compound was assayed against human ether-à-go-go-related gene (hERG) potassium channel (human, UniProt Q12809) (assay: primary screen, population patch clamp on CHO cells stably expressing hERG).
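Note: peak tail current of the secondary pulse compared with the same well before compound.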

Sequence of human ether-à-go-go-related gene (hERG) potassium channel (Q12809 whole entry, looked up): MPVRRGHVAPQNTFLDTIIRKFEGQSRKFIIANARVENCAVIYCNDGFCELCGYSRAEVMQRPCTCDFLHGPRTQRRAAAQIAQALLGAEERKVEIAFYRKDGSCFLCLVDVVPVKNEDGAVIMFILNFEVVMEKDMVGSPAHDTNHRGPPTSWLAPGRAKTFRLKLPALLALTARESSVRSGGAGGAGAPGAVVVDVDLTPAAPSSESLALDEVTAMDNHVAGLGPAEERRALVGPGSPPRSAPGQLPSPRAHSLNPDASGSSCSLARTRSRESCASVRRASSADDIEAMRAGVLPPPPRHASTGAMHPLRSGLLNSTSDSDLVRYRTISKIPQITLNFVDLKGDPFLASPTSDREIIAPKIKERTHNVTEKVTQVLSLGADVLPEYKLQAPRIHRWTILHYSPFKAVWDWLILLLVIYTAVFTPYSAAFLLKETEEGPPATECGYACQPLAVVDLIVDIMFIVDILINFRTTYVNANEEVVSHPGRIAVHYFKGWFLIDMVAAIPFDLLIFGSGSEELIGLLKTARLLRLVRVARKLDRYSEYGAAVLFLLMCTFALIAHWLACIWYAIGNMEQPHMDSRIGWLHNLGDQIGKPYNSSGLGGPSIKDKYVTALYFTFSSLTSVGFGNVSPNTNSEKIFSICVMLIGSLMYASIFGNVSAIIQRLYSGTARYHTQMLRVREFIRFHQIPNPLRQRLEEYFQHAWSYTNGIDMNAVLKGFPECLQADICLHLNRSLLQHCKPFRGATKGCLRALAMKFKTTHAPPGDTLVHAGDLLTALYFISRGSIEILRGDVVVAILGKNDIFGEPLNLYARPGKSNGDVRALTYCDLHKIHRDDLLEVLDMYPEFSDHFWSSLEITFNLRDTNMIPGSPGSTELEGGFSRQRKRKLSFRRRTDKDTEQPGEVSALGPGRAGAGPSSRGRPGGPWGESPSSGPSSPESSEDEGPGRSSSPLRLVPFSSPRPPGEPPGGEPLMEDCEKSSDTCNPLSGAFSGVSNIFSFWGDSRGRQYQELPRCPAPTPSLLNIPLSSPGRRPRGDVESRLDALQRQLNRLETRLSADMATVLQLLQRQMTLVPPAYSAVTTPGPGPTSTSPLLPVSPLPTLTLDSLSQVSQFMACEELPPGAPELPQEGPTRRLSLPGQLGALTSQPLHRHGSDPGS

| Structure (SMILES) | hERG current change (%, negative = inhibition) at 10uM [%] |
| --- | --- |
| CCN(CC)S(=O)(=O)c1cc(C(=O)O)ccc1Cl | 11 |
| O=C1CCC(=O)N1c1ccc(S(=O)(=O)Nc2ccc(Br)cc2)cc1 | 10.2 |
| COc1ccc(S(=O)(=O)N2N=C(c3cccc(NS(C)(=O)=O)c3)CC2c2ccco2)cc1 (stereo not shown) | -3.61 |
| Cc1ccc(N(CC(=O)N2CCOCC2)S(C)(=O)=O)cc1Cl | -1.3 |
| O=C(N/N=C/c1ccc(O)c2ccccc12)c1cccnc1 | 20.9 |
| COC(=O)c1c(-c2ccccc2)csc1NC1=NS(=O)(=O)c2ccccc21 | 20 |
| Cc1noc(C)c1COc1cccc(C(=O)Nc2ccc(OCc3ccccc3)cc2)c1 | 6.49 |
| CC(=O)NC(Cc1cc(C)ccc1C)C(=O)N1CCN(C(=O)c2ccccc2Br)CC1 (stereo not shown) | -0.358 |
| O=C(O)c1nc(N2CCCC2)ncc1Cl | 16.5 |
| COc1ccccc1N1CCN(C(=O)c2ccc3[nH]c4c(c3c2)CC(C)CC4)CC1 (stereo not shown) | 11 |
| O=C(/C=C/Nc1ccc(Cc2ccc(N/C=C/C(=O)C(F)(F)F)cc2)cc1)C(F)(F)F | -2.35 |
| O=C1Oc2ccccc2C2(O)C3CCCCCC3C12 (stereo not shown) | -5.02 |
| S=c1[nH]nc(Cc2sc(-c3ccccc3)nc2-c2ccccc2)o1 | 21.6 |
| CCOC(=O)C1CCCN(CCC(=O)Nc2ccc(Br)cc2)C1.Cl (stereo not shown) | -66.7 |
| COc1ccc(Cl)cc1S(=O)(=O)NC(C)C(=O)NCc1ccccn1 (stereo not shown) | 11.4 |
| COc1cccc(C(=O)NCCSc2ccc(Br)cc2)c1 | -45.6 |
| CC(C)CNC(=O)CSc1nnc(-c2cccc(S(=O)(=O)N3CCCCC3)c2)o1 | 4.34 |
| O=C(Nc1ccc(N2CCCC2)cc1)c1cc2ccccc2o1 | 20.4 |
| CCN1C=C(Cc2ccc(F)cc2)C2=C(C1)C(c1ccc(F)cc1)C(C#N)=C(N)O2 (stereo not shown) | -4.99 |
| O=C(O)/C(=C\C(=O)c1ccccc1)Nc1ccccc1 | 10.8 |

| Structure (SMILES) | hERG current change (%, negative = inhibition) at 10uM [%] |
| --- | --- |
| Cc1ccc2nc(NC(=O)CSCC(=O)OCC(=O)c3ccc(Br)cc3)sc2c1 | 16.5 |
| O=C(CN1C(=O)CCSc2ccc(S(=O)(=O)N3CCOCC3)cc21)Nc1cccc(F)c1 | 0.473 |
| NC(=O)c1c(NC(=O)Cn2cc([N+](=O)[O-])cn2)sc2c1CCCC2 | 5.04 |
| CN(C)N=Nc1nc2c(c(=O)n(C)c(=O)n2C)n1C | 11.1 |
| COc1ccc(S(=O)(=O)NCCOc2ccccc2)cc1F | 8.52 |
| Cc1cc(C(=O)COC(=O)CNC(=O)c2ccccc2)c(C)n1CC1CCCO1 (stereo not shown) | 6.64 |
| CC1CC2(C)Oc3ccccc3C3OCC1(CO)C(C)C32 (stereo not shown) | 5.07 |
| COc1ccc(C(=O)N/C=C/n2cnc3cc(C(F)(F)F)ccc32)cc1 | -9.71 |
| CCN(CC)CCn1c2c(c(SCC(=O)Nc3cc(C)ccc3C)nc1=O)CCC2 | -61 |
| CC(C)CC1(C)NC(=O)N(CCN2C(=O)c3ccccc3C2=O)C1=O (stereo not shown) | 19.7 |
| CCCc1nn(C)c(C(=O)Nc2ccc(Cl)cc2)c1Cl | 10.2 |
| Cc1ccc(C(=O)CC(=O)c2ccc(C)cc2O)cc1 | 19.3 |
| COc1cccc(/C=c2\s/c(=C/C(=O)c3ccc(C)cc3)[nH]c2=O)c1OC | -7.42 |
| CCOc1ccc(CCNC(=O)COc2cccc(-n3cnnn3)c2)cc1OCC | -23.1 |
| COc1ccc(C2C3=C(CCCC3=O)Nc3ccc4ncccc4c32)cc1OC (stereo not shown) | -25.7 |
| COC(=O)C1=C(c2cc3ccccc3o2)C[C@@H]2CC[C@H]1N2C(=O)N1CCC(C)CC1 | -1.39 |
| CCCCN(CCCC)c1ncnc2nc[nH]c12 | -21.8 |
| Cc1ccc(NC(=O)CSc2nc(=O)cc(N)n2-c2ccccc2)cc1 | 20.3 |
| CSc1nc2c(cc1C#N)CCCCC2 | 7.65 |
| CCOCCCNC(=O)c1ccccc1SC | -4.87 |

| Structure (SMILES) | hERG current change (%, negative = inhibition) at 10uM [%] |
| --- | --- |
| C=CCN=C(NC#N)SCc1ccccc1 | 13.2 |
| Nc1c(NCCN2CCOCC2)c2ccccc2oc1=O | 7.96 |
| O=C(Nc1cccc2ccccc12)c1cnccn1 | -4.09 |
| Nc1cccc(C(=O)OCC(=O)Nc2cccc3c2C(=O)c2ccccc2C3=O)c1 | 10.9 |
| O=C(CNC(=O)c1ccc(Br)o1)Nc1ccncc1 | -0.198 |
| Cc1sc(-c2c(C#N)c(N)nc3c2CCCCCC3)cc1[N+](=O)[O-] | -4.1 |
| O=C(CSc1n[nH]c(-c2cccs2)n1)NC1CCS(=O)(=O)C1 (stereo not shown) | -6.81 |
| Cc1ccccc1Cn1c(C(C)O)nc2ccccc21 (stereo not shown) | 4.7 |
| CC1CCN(CC(=O)Nc2ccc(S(=O)(=O)N3CCCCC3)cc2)CC1 | -17.6 |
| Cc1cccn2c(=O)c(C=C(C#N)C#N)c(N3CCN(c4cccc(Cl)c4)CC3)nc12 | 13.3 |
| CCOC(=O)C1=C(C)NC(=O)NC1c1ccc(Br)s1 (stereo not shown) | -3.07 |
| COc1cc(C(=O)CSc2nncn2C)cc(OC)c1OC | 6.63 |
| Cc1ccccc1OCC(=O)N/N=C/c1cccn1C | 7.04 |
| O=C(CNCCC1=CCCCC1)Nc1ccc(N2CCCCCC2)cc1.O=C(O)C(=O)O | -32 |
| COc1cccc(CN2CCN(C(=O)c3cccc4ccccc34)CC2)c1.O=C(O)C(=O)O | -12 |
| CCN(CC)c1nc(N)c2c(N)nc3c(c2c1C#N)CC(c1ccccc1)O3 (stereo not shown) | -6.07 |
| CC1CN(C(=S)Nc2ccccc2C(F)(F)F)CC(C)O1 (stereo not shown) | -36.3 |
| CC/C(=N\NC(=S)Nc1cccc(C)c1)c1ccccc1 | -4.73 |
